Measurements published in PubChem BioAssay AID1347165 (National Center for Advancing Translational Sciences (NCATS), 2019).
“And” between values parts separate entries of the source, which are not always exact repeats. Identical values can stand only once. In all, about 220,000 compounds went through this assay and about 5,700 (2.6%) were called active. This list was built around the results that the source calls inconclusive (neither active nor inactive); the mix of calls is not that of the screen. The call rests on the fitted dose curve; in most records, active means well fitted inhibition curve with a large enough effect; inconclusive means small, poorly fitted or top-dose-only effect; inactive means no such curve, though single readings can be large or run the other way. Where the call is inconclusive, the potency comes from a doubtful curve fit.

target: Lysine-specific demethylase 5B (Homo sapiens) (UniProt Q9UGL1); test: Primary screen for KDM5B Histone Demethylases FDH-coupled qHTS; details: FDH-coupled NADH fluorescence (FDH is formaldehyde dehydrogenase); activity change, negative = inhibition: at 57.7 µM (top of the series) unless noted; further: nearly all actives have a fitted effect of over 70% in size; on activity change, negative = inhibition: 0% is about no effect
Chain of UniProt Q9UGL1 (Q9UGL1 whole entry, looked up): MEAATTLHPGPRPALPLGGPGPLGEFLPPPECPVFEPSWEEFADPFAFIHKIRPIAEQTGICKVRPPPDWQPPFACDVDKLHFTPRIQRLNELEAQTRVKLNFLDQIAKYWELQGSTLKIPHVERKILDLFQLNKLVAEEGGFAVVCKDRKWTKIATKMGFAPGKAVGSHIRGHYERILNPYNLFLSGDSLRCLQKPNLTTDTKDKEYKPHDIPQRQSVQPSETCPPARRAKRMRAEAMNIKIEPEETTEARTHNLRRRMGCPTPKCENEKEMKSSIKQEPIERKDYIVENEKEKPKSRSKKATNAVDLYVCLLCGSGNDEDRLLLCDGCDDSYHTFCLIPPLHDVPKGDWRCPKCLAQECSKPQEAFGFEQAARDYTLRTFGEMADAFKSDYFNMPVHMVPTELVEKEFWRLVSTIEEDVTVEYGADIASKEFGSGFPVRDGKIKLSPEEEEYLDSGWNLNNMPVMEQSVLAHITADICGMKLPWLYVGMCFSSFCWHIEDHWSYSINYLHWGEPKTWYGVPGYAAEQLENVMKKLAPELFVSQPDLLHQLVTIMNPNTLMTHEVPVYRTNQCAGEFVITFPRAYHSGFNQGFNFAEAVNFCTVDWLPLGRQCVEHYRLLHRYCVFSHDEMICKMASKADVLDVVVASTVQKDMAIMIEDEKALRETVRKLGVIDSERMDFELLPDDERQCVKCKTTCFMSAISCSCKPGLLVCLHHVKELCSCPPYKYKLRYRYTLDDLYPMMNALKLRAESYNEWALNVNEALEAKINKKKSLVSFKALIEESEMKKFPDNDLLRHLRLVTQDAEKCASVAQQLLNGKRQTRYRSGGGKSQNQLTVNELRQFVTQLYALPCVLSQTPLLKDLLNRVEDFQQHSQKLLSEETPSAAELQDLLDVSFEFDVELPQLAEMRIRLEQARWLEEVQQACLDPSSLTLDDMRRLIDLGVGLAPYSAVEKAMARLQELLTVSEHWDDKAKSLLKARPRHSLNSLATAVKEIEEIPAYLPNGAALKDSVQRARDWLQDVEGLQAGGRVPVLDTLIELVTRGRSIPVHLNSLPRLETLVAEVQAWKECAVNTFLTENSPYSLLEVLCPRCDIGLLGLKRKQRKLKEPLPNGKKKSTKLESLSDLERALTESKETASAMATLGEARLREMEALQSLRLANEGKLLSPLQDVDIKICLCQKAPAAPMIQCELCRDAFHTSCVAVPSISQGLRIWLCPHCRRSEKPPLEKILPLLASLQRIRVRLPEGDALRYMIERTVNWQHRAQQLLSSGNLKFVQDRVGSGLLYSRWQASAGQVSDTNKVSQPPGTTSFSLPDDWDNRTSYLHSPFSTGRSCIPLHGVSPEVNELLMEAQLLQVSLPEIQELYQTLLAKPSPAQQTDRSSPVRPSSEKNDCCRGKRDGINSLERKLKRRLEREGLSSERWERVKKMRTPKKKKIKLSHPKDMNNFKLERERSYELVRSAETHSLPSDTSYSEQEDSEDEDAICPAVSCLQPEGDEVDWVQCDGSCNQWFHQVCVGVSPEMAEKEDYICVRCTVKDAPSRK
Procedure, shortened: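 Coupled FDH/NAD⁺ fluorescence readout. KDM5BΔAP 200 nM final; compound titration, 10 min RT preincubation; substrate mix 12.5 µM H3K4me3, 25 µM 2-OG, 50 µM Fe(II), 100 µM ascorbate, 0.25 mM NAD⁺, 0.25 U/mL FDH; ΔRFU over 30 min.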
Potency means the concentration at half of the fitted maximal effect; tags describe the fitted curve by direction and shape.

Row | SMILES | Potency | activity change, negative = inhibition
1 | O=C(CSc1nnc(-c2ccncc2)n1C1CC1)c1cc2cc(Cl)ccc2o1 | inconclusive: 35.5 µM [inhibitor, single point] | 
2 | CC(C)Cn1c(COc2ccccc2Cl)n[nH]c1=S |  | inactive: -8.47%
3 | O=C(CCC[C@H]1NC[C@@H]2CC1CN(Cc1ccccc1)C2)NCc1ccc(F)cc1 | inconclusive: 7.08 µM [inhibitor, partial curve] | 
4 | Cc1oc(-c2cccs2)nc1C(=O)NC(C)CN1CCOCC1 (centres undefined) | inconclusive: 28.2 µM [inhibitor, partial curve, poor fit] | 
5 | COc1ccc2c(c1)c1c(c(=O)n(-c3ccccc3C)c(=O)n1CC(N)=O)n2C | inconclusive: 17.8 µM [inhibitor, partial curve, poor fit] | 
6 | O=C(COc1ccc2ccc(=O)oc2c1)NC1CC1 | inconclusive: 28.2 µM [inhibitor, partial curve, poor fit] | 
7 | CC(OC(=O)C1=NN(C)C(=O)CC1)C(=O)c1c[nH]c2ccccc12 (centres undefined) |  | inactive: -14.2%
8 | CN1CCCN(S(=O)(=O)c2ccc(C(F)(F)F)cc2)c2ccccc21 | active: 14.1 µM | 
9 | COCC1CCN(c2ccc(-c3nc(-c4ccccc4C)no3)cn2)C1 (centres undefined) | active: 31.6 µM | 
10 | CCC(=O)Nc1ccccc1C(=O)OC/C(=N\O)c1ccc(OC)cc1 |  | inactive: 0.133%
11 | CCn1ncc2c(C(=O)Nc3cc(OC)cc(OC)c3)cc(-c3cccs3)nc21 | inconclusive: 39.8 µM [inhibitor, single point] | 
12 | Cc1nc(-c2cccc(N3CC(C(=O)NCc4ccccc4C)CC3=O)c2)no1 (centres undefined) |  | inactive: 13.7%
13 | Cc1ccc(/C=C/c2onc(C)c2S(=O)(=O)N2CCC(C(=O)Nc3ccc(OC(F)(F)F)cc3)CC2)cc1 |  | inactive: -7.56%
14 | CCOc1ccccc1C(=O)NC1CCN(c2cc(-c3ccc(Cl)cc3)[nH]n2)C1 (centres undefined) | inconclusive: 15.8 µM [inhibitor, partial curve, poor fit] | 
15 | Cc1nnn2c(C(=O)N3CCOCC3)cccc12 | inconclusive: 28.2 µM [inhibitor, single point] | 
16 | CCCCNc1nc2c(-c3cccc(C)c3)nnn2c2ccccc12 |  | inactive: -4.13%
17 | CCN1c2cc(C(=O)Nc3ccc(OC)cc3)ccc2C(=O)N2CCCC21 (centres undefined) | inconclusive: 39.8 µM [inhibitor, partial curve, poor fit] | 
18 | COc1cccc(C(=O)N2CCOc3ccc(CN4CCc5ccccc5C4)cc3C2)c1 | inconclusive: 17.8 µM [inhibitor, partial curve, poor fit] | 
19 | CCOc1ccc2nc(NC(=O)c3nc(SCC)ncc3Cl)sc2c1 |  | inactive: 30.9%
20 | COc1ccccc1Nc1ncc2c(n1)CN(C(=O)c1cccc(C#N)c1)CCN2 |  | inactive: -12% [at 86.2 µM]
21 | Cc1ccccc1Cc1noc(-c2nc(-c3ccc4c(c3)OCO4)no2)n1 | active: 28.2 µM | 
22 | COC(=O)CSc1nc(N2CCCCC2)c2c(c1C#N)CCCC2 | inconclusive: 35.5 µM [inhibitor, single point] | 

Row | SMILES | Potency | activity change, negative = inhibition
23 | COc1cc(C(=O)N2CCNC(=O)C2CC(=O)Nc2ccc(C)c(C)c2)cc(OC)c1OC (centres undefined) | inconclusive: 15.8 µM [inhibitor, partial curve, poor fit] | 
24 | CN1CCC(N[C@H]2C[C@@H](Cc3cc(-c4ccccc4)on3)C2(C)C)CC1 |  | inactive: -28.2% [at 86.2 µM]
25 | O=C(NCc1cccnc1)c1ccc2nccn2c1 | active: 112 µM and inconclusive: 28.2 µM [inhibitor, partial curve] | 
26 | N#Cc1nc(/C=C/c2ccccc2)oc1NCc1ccccc1 |  | inactive: 4.21%
27 | CCN(CC)CC1CCN(CC(=O)OC)CC1 |  | inactive: 12.3%
28 | Cc1cccc(C(C)C)c1NC(=O)CCc1ncc(-c2ccc(F)cc2F)o1 |  | inactive: 20.4%
29 | N#CCC(=O)Nc1ccc(C(=O)OCC(=O)Nc2ccc(N3CCCCC3)cc2)cc1 | inconclusive: 20 µM [inhibitor, partial curve, poor fit] | 
30 | CSc1ccc(CNC(=O)Cn2c(-c3cccs3)cc3cc(F)ccc32)cc1 | inconclusive: 31.6 µM [inhibitor, partial curve, poor fit] | 
31 | O=C(/C=C\c1ccc2c(c1)OCO2)NC1CC(=O)N(c2ccccc2)C1 (centres undefined) | inconclusive: 28.2 µM [inhibitor, partial curve, poor fit] | 
32 | O=S(=O)(Nc1ccccc1Sc1nncs1)C1=Cc2ccccc2CC1 | inconclusive: 20 µM [inhibitor, single point] | 
33 | COc1ccc(-c2nc(C#N)c(NC(C)c3ccccc3)o2)cc1 (centres undefined) | inconclusive: 22.4 µM [inhibitor, partial curve, poor fit] | 
34 | CC(O)c1cc2n(n1)CCN(C(=O)CN1CCCN(C)CC1)C2 (centres undefined) | inconclusive: 17.8 µM [inhibitor, single point] | 
35 | O=C(Nc1ccc(-c2nc3ccccc3o2)c(O)c1)c1cc(Cl)ccc1Cl | inconclusive: 35.5 µM [inhibitor, partial curve, poor fit] | 
36 | CN(C)c1ccc(-c2noc([C@@H]3CCCN3CC3CCCCC3)n2)cn1 | active: 39.8 µM | 
37 | COc1cc(OC)cc(C(=O)Nc2ccc3nc4c(c(Nc5ccc(OC)c(OC)c5)c3c2)CCCC4)c1 | inconclusive: 4.47 µM [inhibitor, partial curve, poor fit] | 
38 | CCCCc1ccc(Nc2cc(C)nc(-n3nc(C)cc3C)n2)cc1 | inconclusive: 44.7 µM [inhibitor, single point] | 
39 | c1ccc2c(c1)COC1(CCNC1)CN2CC1CCCC1 (centres undefined) | inconclusive: 100 µM [inhibitor, partial curve] | 
40 | CN(CCO)c1ncnc2c1sc1nc(N3CCOCC3)c3c(c12)CCC3 | inconclusive: 28.2 µM [inhibitor, partial curve, poor fit] | 
41 | O=C(NC1CCCCC1)C1CN(C(=O)c2cccc(C(F)(F)F)c2)CC12CCOCC2 (centres undefined) |  | inactive: 33.3%
42 | Cc1csc(NC(=O)c2nc3c(o2)CCN(Cc2ccc(C#N)cc2)CC3)n1 | inconclusive: 31.6 µM [inhibitor, single point] | 
43 | COc1ccccc1N1CCN(C(=O)Cn2cccc2-c2nc(-c3ccc(F)cc3)no2)CC1 | inconclusive: 39.8 µM [inhibitor, partial curve, poor fit] | 
44 | CCOc1ccc(Br)cc1C1C(C#N)=C(N)Oc2cc3c(cc21)OCO3 (centres undefined) | inconclusive: 10 µM [inhibitor, partial curve, poor fit] | 

Row | SMILES | Potency | activity change, negative = inhibition
45 | CCCCNC(=O)CC1Nc2cc(C)c(C)cc2NC1=O (centres undefined) | inconclusive: 11.2 µM [inhibitor, partial curve, poor fit] | 
46 | COc1ccc(Cl)cc1NC(=O)Nc1c[nH]c(=O)[nH]c1=O | inconclusive: 28.2 µM [inhibitor, partial curve, poor fit] | 
47 | O=C(Cn1ccc2c(Br)cccc21)NC1CC1 |  | inactive: 1.81%
48 | CCN(CC)CCN(C(=O)c1ccco1)c1nc2c(C)c(C)ccc2s1 |  | inconclusive: -37.7% [inhibitor]
49 | O[C@@H]1C[C@@H](c2nc(-c3ccc4c(c3)OCO4)no2)N(Cc2ccccn2)C1 | inconclusive: 28.2 µM [inhibitor, single point] | 
50 | CC(=O)Nc1ccc(NC(=O)CN2C(=O)CC(c3ccco3)Sc3ccccc32)cc1 (centres undefined) | inconclusive: 5.01 µM [inhibitor, full curve, poor fit] | 
51 | Cc1ccccc1-c1cc(C(=O)NCc2cccnc2)c2c(c1)ncn2C | inconclusive: 28.2 µM [inhibitor, partial curve, poor fit] | 
52 | Cc1cccc(C)c1Nc1c(-c2ccc(N3CCOCC3)cc2)nc2ncccn12 | inconclusive: 25.1 µM [inhibitor, partial curve, poor fit] | 
53 | Cc1cccc(C(=O)Nc2cccc(C3OC(=O)N(Cc4ccccc4)C3C(=O)NCC(C)C)c2)c1 (centres undefined) | inconclusive: 31.6 µM [inhibitor, single point] | 
54 | CNc1nc(N2CC[C@@H]3C[C@H](N4CCOCC4)CC[C@@]3(COC)C2)ncc1F | inconclusive: 28.2 µM [inhibitor, partial curve, poor fit] | 
55 | CC(C)CCn1c(N2CCC(C(N)=O)CC2)nc2c1c(=O)n(C)c(=O)n2C |  | inactive: 18.9%
56 | CS(=O)(=O)N(Cc1csc(-c2cccs2)n1)C1CCN(C(=O)c2ccccc2F)CC1 | inconclusive: 35.5 µM [inhibitor, partial curve, poor fit] | 
57 | COc1ccc(O)cc1CN1CCC2(CCNCC2)C1 | inconclusive: 11.2 µM [inhibitor, partial curve] | 
58 | CC[C@H](C)[C@@H](N)C(=O)N1CCC2(CC1)Nc1ccccc1NC2=O | inconclusive: 2.24 µM [inhibitor, full curve, poor fit] | 
59 | Cc1ccc2oc(=O)c(S(=O)(=O)c3ccc(F)cc3)cc2c1 | inconclusive: 35.5 µM [inhibitor, partial curve, poor fit] | 
60 | Cc1cc2c(s1)CCc1cc(C(=O)NC3CCCC3)sc1-2 | inconclusive: 20 µM [inhibitor, partial curve, poor fit] | 
61 | COc1ccc(CCN2C(=O)NC(NC(=O)c3ccccc3OC)(C(F)(F)F)C2=O)cc1OC (centres undefined) |  | inconclusive: -32.4% [inhibitor]
62 | CCN(CC)CCCNC(=O)c1cc(-c2ccc(OC)cc2)nc2ccccc12 | inconclusive: 22.4 µM [inhibitor, partial curve, poor fit] | 
63 | Cn1nnnc1SCCCNCc1cccc(OCc2ccccc2F)c1 |  | inconclusive: -30.1% [inhibitor]
64 | CCNC(=O)N1CC[C@@H](CC(=O)O)[C@@H](CC2=NCCc3cc(OC)ccc32)C1 | inconclusive: 39.8 µM [inhibitor, partial curve, poor fit] | 
